Results on 53 molecules are retold here after ChEMBL document CHEMBL4888484, “Replenishing the malaria drug discovery pipeline: Screening and hit evaluation of the MMV Hit Generation Library 1 (HGL1) against asexual blood stage Plasmodium falciparum ,using a nano luciferase reporter read-out” (2022).

The whole screen tested about 150,000 compounds, of which about 540 (0.36%) showed an effect of 50% or more. The list shows a part of the results.

The test system of this experiment is Plasmodium falciparum. The experiment is described as follows: Primary screen in NF54 nanoGlo assay, in single point, at 2uM, 72h; a lower Z score goes with more inhibition. Format: functional, Erythrocyte. The conditions noted are these: timepoint 72 hour.
Regarding `COc1ccccc1NC(=O)N(C1=NCCCCC1)c1cccc(C)c1`, the “% Inhibition” value worked out at 9% and the Z score was -1.25.

Turning to `CCC(C)NC(=O)C(NC(=O)c1ccc(OC)cc1)C1CCN(C(=O)Nc2cccc(Cl)c2)CC1` (stereo unspecified), the “% Inhibition” value was -1% and the Z score was found to be 0.2.

Take `CCN(c1ccccc1)S(=O)(=O)c1cc2c3c(c1)CCC(=O)N3CCC2`: the “% Inhibition” value is reported as -12% and the Z score came to 2.38.

Regarding `CCS(=O)(=O)Nc1nn(C(C)(C)C)cc1C#N`, the “% Inhibition” value is reported as 6% and the Z score was -1.17.

For `O=C(Nc1ccccc1)c1cccc(NS(=O)(=O)c2ccc3c(c2)OCCCO3)c1`, the “% Inhibition” value is listed as 21% and the Z score was -2.43.

With `COc1ccc(OC)c2sc(N3CCc4ccccc4C3)nc12`, the “% Inhibition” value is given as 1% and the Z score was -0.09.

With `CCOC(=O)c1c(S(=O)(=O)N2CCC[C@H](C(=O)Nc3ccccc3OC)C2)c(C)n(C)c1C`, the “% Inhibition” value is -11% and the Z score was 1.75.

On to `CCc1ccc(-n2nc(CO)c(C(=O)NCc3ccccn3)n2)cc1`, for which the “% Inhibition” value is on record as -7% and the Z score turned out to be 1.08.

As to `CCCOCC(=O)NC1(CN2CCCCC2)CCCCC1`, the “% Inhibition” value is on record as -3% and the Z score worked out at 0.57.

Consider `CC(C)(C)OC(=O)NC1CCCCCC1C(=O)NCc1cccnc1` (stereo unspecified), for which the “% Inhibition” value was 0% and the Z score is reported as 0.07.

In the case of `CC#CCN1CCN(CC#CC)[C@H](C(=O)N(C)C)C1`, the “% Inhibition” value was -16% and the Z score is 2.65.

Take `COc1ccc(-c2noc(CN3C[C@H]4CC[C@H]3C4)n2)cc1`: the “% Inhibition” value is reported as -10% and the Z score worked out at 0.93.

`Cc1ccc(CN2CCc3oc(C)c(C(=O)NCCN4CCOCC4)c3C2)cc1`: the “% Inhibition” value is on record as -5% and the Z score is on record as 0.52.

Take `Cc1nn(C)cc1C1=NO[C@H]2C(=O)N(c3ccc(F)c(Cl)c3)C(=O)[C@@H]12`: the “% Inhibition” value is reported as -1% and the Z score stood at 0.11.

For the molecule `COc1ccccc1Cc1nc2c(c(N3CCOCC3)n1)CN(C(=O)Nc1cccc(Cl)c1Cl)CC2`, the “% Inhibition” value worked out at 0% and the Z score turned out to be 0.06.

Turning to `CCO[C@H]1CN(C(=O)c2c(C)noc2C)C[C@@H]1O`, the “% Inhibition” value is reported as -19% and the Z score stood at 1.9.

For the molecule `Cc1ccccc1NC(=O)Nc1cccc(-c2cc3ccccc3[nH]2)c1`, the “% Inhibition” value worked out at 23% and the Z score is recorded as -2.68.

`CCCNC(=O)CNC(=O)c1csc(NC(C)=O)n1`: the “% Inhibition” value is -4% and the Z score is 0.67.

Regarding `CC(C)[C@H](C)N(C)S(=O)(=O)c1c(Cl)cc(Br)cc1Cl`, the “% Inhibition” value is listed as -4% and the Z score came to 0.43.

For the molecule `CN(CC(=O)N[C@H]1CCCc2ccccc21)S(=O)(=O)c1c[nH]c(C(=O)N2CCCC2)c1`, the “% Inhibition” value is on record as -12% and the Z score is 1.19.

As for `CCN(CC)[C@H]1CCN(C(=O)c2cnn(-c3nccc(-c4ccccc4OC)n3)c2C)C1`, the “% Inhibition” value is on record as -12% and the Z score was found to be 1.86.

Turning to `Cc1nc(NCc2ccc(F)cc2)sc1-c1ccn(CCN2CCOCC2)n1`, the “% Inhibition” value is -1% and the Z score amounted to 0.11.

Turning to `CCn1cc(CCN2CCN(C(=O)c3ccco3)CC2)c2cccnc21`, the “% Inhibition” value is reported as 6% and the Z score is -0.98.

As to `Cc1n[nH]c(C)c1CCC(=O)Nc1ccc2c(c1)C(=O)N1CCC[C@H]1C(=O)N2`, the “% Inhibition” value is reported as 0% and the Z score was -0.01.

For `Cc1c[nH]c(CN(C)[C@@H](C(=O)O)c2ccc(NC(=O)N3CCCC3)cc2)n1`, the “% Inhibition” value was -6% and the Z score is reported as 0.91.

As to `Cc1cc(C)n2ncc(CN(C)Cc3ccncc3C)c2n1`, the “% Inhibition” value was -3% and the Z score is recorded as 0.51.

Consider `CCc1cc(O)nc(CN2CCC[C@H](Cc3nc(C)no3)C2)n1`, for which the “% Inhibition” value was -10% and the Z score was 1.4.

As to `CC(c1ccccc1)C(C)(O)C(=O)NCCC1CCCCO1` (stereo unspecified), the “% Inhibition” value is on record as -4% and the Z score was found to be 0.32.

As for `Cc1cccc(C(=O)NC2CCN3CCCC3C2)c1O` (stereo unspecified), the “% Inhibition” value was -4% and the Z score came out at 0.41.

As to `CCn1nc(C)c(C(=O)Nc2cccc(-c3ccc4ccccc4c3)n2)c1Cl`, the “% Inhibition” value was -9% and the Z score came to 1.14.

As for `CN(Cc1ccco1)C(=O)NC[C@H]1COc2ccccc2O1`, the “% Inhibition” value is reported as -25% and the Z score turned out to be 2.9.

Turning to `COC(=O)c1ccc(N(C)[C@@H](C)c2ccccn2)nn1`, the “% Inhibition” value is listed as 11% and the Z score is reported as -1.21.

As to `O=C(NC1c2ccccc2CCC1CO)c1cscn1` (stereo unspecified), the “% Inhibition” value was -12% and the Z score worked out at 1.64.

As for `O=C1C[C@@H](c2cccc(OC(F)F)c2)c2c(ccc3nsnc23)N1`, the “% Inhibition” value is on record as -5% and the Z score was 0.59.

Regarding `C[C@@H]1CN(C(=O)N[C@H]2CC[C@H](c3nccc(O)n3)CC2)C[C@H](C)O1`, the “% Inhibition” value is listed as -5% and the Z score turned out to be 0.95.

Consider `CCn1nc(C)c2ccnc(N3CCC(C(=O)N4CCN(c5cccc(OC)c5)CC4)CC3)c21`, for which the “% Inhibition” value is given as -13% and the Z score amounted to 2.13.

As to `Cc1nnc(N2CCN(c3ccccc3F)CC2)c2c1nnn2Cc1ccc(F)cc1`, the “% Inhibition” value was -14% and the Z score was determined as 1.6.

For `CCc1nc(Cn2ccc(=O)n(C)c2=O)cs1`, the “% Inhibition” value was -13% and the Z score worked out at 2.49.

Take `CC1CN(S(=O)(=O)Nc2cccc3c2OCCO3)C(C)CO1` (stereo unspecified): the “% Inhibition” value is -9% and the Z score was 1.28.

In the case of `C=CCN(Cc1csc(COc2ccc(C)c(C)c2)n1)S(=O)(=O)c1ccc(OC)cc1`, the “% Inhibition” value was found to be 1% and the Z score is reported as -0.1.

Turning to `CCn1c(C)ccc(C(=O)NC2(c3cc(F)ccc3F)CC2)c1=O`, the “% Inhibition” value was -3% and the Z score is 0.4.

In the case of `CC(C)[C@H](Cn1cncn1)NC(=O)c1ccccc1Br`, the “% Inhibition” value is 5% and the Z score is listed as -0.68.

As for `COc1ccccc1Oc1ccc(S(=O)(=O)N2CCCCC2)cc1NCC(=O)N1CCNC1=O`, the “% Inhibition” value was -10% and the Z score is listed as 1.58.

Consider `CCN(CC)c1ccc(N2C(=O)c3c(Br)c(Br)c(Br)c(Br)c3C2=O)cc1`, for which the “% Inhibition” value is recorded as 35% and the Z score is -4.45.

As to `CC(=O)Nc1ccc(C(=O)N2CCO[C@H](C3CCC3)C2)nc1`, the “% Inhibition” value is reported as 0% and the Z score was 0.08.

For the molecule `Cn1cnnc1[C@H]1CCCN(S(=O)(=O)N2CCCCC2)C1`, the “% Inhibition” value is given as -6% and the Z score stood at 0.88.

Regarding `O=C(CC[C@@H]1NC(=O)c2ccccc2NC1=O)Nc1ccc(F)cc1`, the “% Inhibition” value is reported as -8% and the Z score worked out at 1.03.

With `CN(C)CCN(C(=O)CCc1ccncc1)C1CCCC1`, the “% Inhibition” value stood at 2% and the Z score was -0.35.

On to `Cc1nn(C)c(C)c1-c1ccnc(N(C)Cc2nc(-c3ccccn3)no2)n1`, for which the “% Inhibition” value is on record as -20% and the Z score was 2.71.

For the molecule `COCCn1cc(NC(=O)N(CC2CCCCC2)C2CC2)cn1`, the “% Inhibition” value is listed as 1% and the Z score is listed as -0.14.

For `CC(C(C)S(C)(=O)=O)N(C)C(=O)NCc1cccnc1` (stereo unspecified), the “% Inhibition” value was -5% and the Z score worked out at 0.39.

On to `Cc1nc(O)c(Cl)c(NCCN2CCC(CO)CC2)n1`, for which the “% Inhibition” value was -6% and the Z score is on record as 0.83.

Consider `COCCC[C@H]1CCCCN1C1CCN(C2CCCC2)CC1`, for which the “% Inhibition” value amounted to 4% and the Z score is -0.47.
